Reference: PubChem BioAssay AID1345083 (National Center for Advancing Translational Sciences (NCATS), 2018)
The whole screen tested about 94,000 compounds, of which about 6,200 (6.6%) were called active. The shares of active, inactive and inconclusive entries below differ from those in the screen. The call rests on the fitted dose curve; in most records, active means well fitted inhibition curve with a large enough effect; inconclusive means small, poorly fitted or top-dose-only effect; inactive means flat fitted curve, though single readings scatter. A potency beside an inconclusive call is a rough fit, not a confirmed value.

Test: Cytotoxic Profiling in HEK 293 Cell Line of Diverse Libraries Using Quantitative High-Throughput Screening; further: nearly all actives have a fitted effect of over 60% in size
Conditions: HEK 293 viability, ATP luminescence (CellTiter-Glo), 48-72 h; activity change, negative = cytotoxicity: at 115 µM (top of the series) unless noted; series mostly up to 115 µM
Procedure, shortened: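 Luminescence from cellular ATP, measured with CellTiter-Glo, indicates HEK 293 viability. Cells plated at 250 cells/well are treated with compound for 48 or 72 hr at 37 degree Celsius before reagent addition.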
On the % scale 0 is the no-effect control and ±100 the full control effect; potency means the concentration at half of the fitted maximal effect; tags describe the fitted curve by direction and shape.

Compound | Potency | activity change, negative = cytotoxicity | outcome
Cc1ccc(OC2CN(C(=O)c3ccc(F)cc3)C2)cc1C | inconclusive: 100 µM [inhibitor, partial curve, poor fit] | – | –
O=S(=O)(c1ccc(F)cc1)N1CCOC[C@H](Oc2ccc(C(F)(F)F)cn2)C1 | inconclusive: 100 µM [inhibitor, partial curve, poor fit] | – | –
CCn1ccc(C(=O)NC2CCCN(c3cc(-c4ccc(OC)cc4)[nH]n3)C2)n1 (configuration not stated) | inconclusive: 79.4 µM [inhibitor, partial curve, poor fit] | – | –
COCCCNC(=O)c1ccc2c(c1)C(O)CCCCCN2CCOC (configuration not stated) | – | inactive: -21% | –
O=C1CN(S(=O)(=O)c2ccccc2)CC2(CCCCC2)N1CC1CC1 | inconclusive: 70.8 µM [inhibitor, single point] | – | –
O=C1CC(c2noc(-c3ccccc3F)n2)CN1c1ccc(Cl)cc1 (configuration not stated) | inconclusive: 50.1 µM [inhibitor, partial curve, poor fit] | – | –
C#CCNC(=O)c1nc2sccn2c1-c1cccc(C(F)(F)F)c1 | inconclusive: 126 µM [inhibitor, single point] | – | –
COCCc1nncn1C1CCN(C(=O)c2ccc(C)c(C)c2)CC1 | – | inactive: 2.3% | –
O=C(NCCc1ccccc1)c1nc2cccnc2n(CCc2ccccc2)c1=O | inconclusive: 50.1 µM [inhibitor, partial curve, poor fit] | – | –
Cc1ccccc1CC(=O)N1CCN(c2cc(-c3ccc(Cl)cc3)[nH]n2)CC1 | inconclusive: 39.8 µM [inhibitor, single point] | – | –
COc1ccc(C(=O)N2CCCC(O)(CN3CCCC3)C2)c(OC)c1 (configuration not stated) | inconclusive: 100 µM [inhibitor, single point] | – | –
O=C(NCCC1CCCCC1)c1c[nH]c2ncccc12 | active: 70.8 µM | – | –
Cc1occc1C(=O)N1CCc2n[nH]c(=O)n2CC1 | – | inactive: -2.02% | –
CNC(=O)CCn1ncc2cc(OCc3ccccc3-c3cc(F)cc(OC)c3)ccc21 | active: 70.8 µM | – | –
NC(=O)c1csc(S(=O)(=O)N2CCC(CO)(CN3CCCC3)CC2)c1 | – | inactive: -21.4% | –
COCCOC1CCOC2(CCN(C(=O)C3(c4ccc(OC)cc4)CC3)CC2)C1 (configuration not stated) | – | inactive: -9.05% | –
Cc1ccc(CN2CCCCCCNC(=O)[C@@H]3C[C@@H](C(=O)NCCc4c[nH]c5ccccc45)C[C@@H]32)o1 | inconclusive: 50.1 µM [inhibitor, partial curve, poor fit] | – | –
CCOc1ccc(C(=O)NC2CCN(c3cc(-c4cccs4)[nH]n3)CC2)cc1OCC | inconclusive: 31.6 µM [inhibitor, partial curve] | – | –
COc1cccc(NC(=O)CCC2CCN(C(=O)c3ccccc3)CC2)c1 | inconclusive: 89.1 µM [inhibitor, partial curve, poor fit] | – | –
COC1CCOC2(CCN(C(=O)c3ccncc3)CC2)C1 (configuration not stated) | – | inactive: -2.96% | –
COC(=O)c1ccc2nc(C[C@@H]3C[C@@H](C(C)C)[C@H](CNC(=O)C4CCC4)C=C3C)[nH]c2c1 | inconclusive: 50.1 µM [inhibitor, partial curve, poor fit] | – | –

Compound | Potency | activity change, negative = cytotoxicity | outcome
COc1ccc(OCc2nc(C3CN(C(=O)CCCc4ccccc4)C3)no2)cc1 | inconclusive: 79.4 µM [inhibitor, partial curve, poor fit] | – | –
COC(=O)CC1C(=O)NCCN1C(=O)c1ccccc1-c1ncc[nH]1 (configuration not stated) | – | inactive: -12.1% | –
Cn1ccc2c(C(=O)NCc3cccnc3)nc(-c3cccc(F)c3)cc21 | active: 89.1 µM | – | –
COCCOc1ccnc(-c2noc([C@@H]3CCCN3Cc3cn(C)c4ccccc34)n2)c1 | inconclusive: 100 µM [inhibitor, partial curve, poor fit] | – | –
COc1ccccc1Nc1ccnc(N2CCC(NC(=O)c3ccc(Cl)cc3)CC2)n1 | active: 35.5 µM | – | –
O=C(NCc1ccccc1)C1CCCN(C2CCN(C(=O)C3CCC3)CC2)C1 (configuration not stated) | – | inactive: -1.72% | –
COc1ccc(C(=O)N2CCC(Cc3nncn3-c3ccccc3)C2)cc1F (configuration not stated) | – | – | inactive
Cc1ccc(C)c(NC(=O)Cn2c(N3CCC(C)CC3)nc(C)cc2=O)c1 | active: 28.2 µM | – | –
COc1ccc(Cl)cc1NC(=O)C[C@H]1NC(=O)c2ccccc2NC1=O | inconclusive: 56.2 µM [inhibitor, partial curve, poor fit] | – | –
COc1ccccc1CCC(=O)Nc1cccc(-c2nnc3n2CCCC3)c1 | inconclusive: 79.4 µM [inhibitor, partial curve] | – | –
CNc1nccc(N2CCC(CC(=O)NCCCOC(C)C)CC2)n1 | inconclusive: 89.1 µM [inhibitor, single point] | – | –
COc1ccccc1CN1CC[C@@H](CO)N(C)c2ncccc2C1 | inconclusive: 79.4 µM [inhibitor, partial curve, poor fit] | – | –
O=C(c1ccoc1)N1CCC(Oc2ccccc2-c2nc(-c3ccccc3)no2)C1 (configuration not stated) | inconclusive: 50.1 µM [inhibitor, partial curve, poor fit] | – | –
Cc1nn2c(c1-c1ccccc1Oc1ccccc1)N([S+](=O)([O-])c1cccnc1)CCC2 | inconclusive: 79.4 µM [inhibitor, partial curve, poor fit] | – | –
CCCCCCOC(=O)C1=CN(C)S(=O)(=O)N=C1C | inconclusive: 17.8 µM [inhibitor, full curve] | – | –
CCN1c2cc(C(=O)NCc3ccc(C)cc3)ccc2C(=O)N2CCCCCC21 (configuration not stated) | inconclusive: 50.1 µM [inhibitor, partial curve, poor fit] | – | –
Nc1ncccc1CN1CC(COc2ccccc2)C2(C1)CN(c1ccccc1)C2 (configuration not stated) | active: 35.5 µM | – | –
O=C(c1nccc2ccccc12)N1CCC(N2C(=O)C(OCC3CC3)C23CCCCC3)CC1 (configuration not stated) | inconclusive: 100 µM [inhibitor, single point] | – | –
CC(C)Cn1c(CN2CCSCC2)cnc1S(=O)(=O)Cc1ccccc1 | inconclusive: 79.4 µM [inhibitor, partial curve, poor fit] | – | –
COc1cccc(N2C(=O)NC(=NC3CCCCC3)C23CCCN(CCC(C)C)C3)c1 (configuration not stated) | active: 39.8 µM | – | –
NC(=O)COC[C@@H]1CN(C2CCSCC2)C[C@H]1c1ccncc1 | inconclusive: 100 µM [inhibitor, single point] | – | –
